# Data: PubChem BioAssay AID504332 (National Center for Advancing Translational Sciences (NCATS), 2011)
# The whole screen tested about 350,000 compounds, of which about 31,000 (8.9%) were called active. Inconclusive results, whose numbers are uncertain, are shown with a selection of clear calls. Calls follow the shape of the dose curve; as a rule, active = well fitted inhibition curve with a large enough effect; inconclusive = small, poorly fitted or top-dose-only effect; inactive = no such curve, though single readings can be large or run the other way. Where the call is inconclusive, the potency comes from a doubtful curve fit.
# Biological target: Histone-lysine N-methyltransferase EHMT2 (Homo sapiens) (UniProt Q96KQ7)
# UniProt Q96KQ7, sequence (Q96KQ7 whole entry, looked up): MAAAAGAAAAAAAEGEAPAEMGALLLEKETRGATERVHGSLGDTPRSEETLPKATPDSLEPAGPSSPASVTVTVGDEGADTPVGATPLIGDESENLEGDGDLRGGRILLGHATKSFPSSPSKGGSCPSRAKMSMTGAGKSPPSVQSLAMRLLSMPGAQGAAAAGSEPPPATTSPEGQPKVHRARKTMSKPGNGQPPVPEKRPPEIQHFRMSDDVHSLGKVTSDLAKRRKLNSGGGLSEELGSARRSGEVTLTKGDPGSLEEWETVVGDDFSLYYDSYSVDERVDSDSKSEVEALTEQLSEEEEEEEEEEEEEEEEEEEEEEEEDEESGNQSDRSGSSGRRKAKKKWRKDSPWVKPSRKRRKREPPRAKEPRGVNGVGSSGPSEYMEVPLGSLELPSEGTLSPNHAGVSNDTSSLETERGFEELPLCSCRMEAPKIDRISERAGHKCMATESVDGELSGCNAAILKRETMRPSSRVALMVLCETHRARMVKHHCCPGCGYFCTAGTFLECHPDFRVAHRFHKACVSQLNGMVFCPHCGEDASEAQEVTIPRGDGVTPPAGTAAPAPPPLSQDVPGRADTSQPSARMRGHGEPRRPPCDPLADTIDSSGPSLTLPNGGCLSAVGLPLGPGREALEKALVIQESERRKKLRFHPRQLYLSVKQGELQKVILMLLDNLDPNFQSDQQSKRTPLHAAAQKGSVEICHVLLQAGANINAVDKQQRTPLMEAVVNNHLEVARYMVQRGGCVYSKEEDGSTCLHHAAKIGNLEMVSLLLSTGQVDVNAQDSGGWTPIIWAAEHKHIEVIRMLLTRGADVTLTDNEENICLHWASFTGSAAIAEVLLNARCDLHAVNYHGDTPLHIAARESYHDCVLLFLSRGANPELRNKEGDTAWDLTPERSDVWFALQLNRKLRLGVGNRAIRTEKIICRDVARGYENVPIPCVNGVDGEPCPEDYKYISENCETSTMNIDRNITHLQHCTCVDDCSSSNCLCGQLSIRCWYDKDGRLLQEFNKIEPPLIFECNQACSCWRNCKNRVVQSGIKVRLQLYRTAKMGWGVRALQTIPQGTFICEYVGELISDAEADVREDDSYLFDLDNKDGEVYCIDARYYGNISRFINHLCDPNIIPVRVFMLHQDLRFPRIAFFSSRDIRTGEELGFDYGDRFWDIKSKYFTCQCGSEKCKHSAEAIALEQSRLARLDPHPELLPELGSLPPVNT
# Assay: qHTS Assay for Inhibitors of Histone Lysine Methyltransferase G9a; also: nearly all actives have a fitted effect of over 75% in size
# Conditions: G9a H3K9 monomethylation, AlphaScreen, 2 h; activity, negative = inhibition: at 59 µM (top of the series) unless noted
# Summary of the method: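 Chemiluminescent proximity detection of H3K9 monomethylation, read after 10 min bead incubation in the dark. Reaction: 20 nM G9a, 500 nM biotin-H3K9 peptide, 20 uM SAM cofactor, 2 h, room temperature, following 15 min enzyme-compound preincubation.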
# % is scaled to controls: 0 for no effect and ±100 for the full control effect; potency is read from the fitted curve at half-maximal effect; tags tell the direction and shape of the fitted curve.
Compound,Potency,"activity, negative = inhibition"
CCCn1nnnc1-c1cccc(Cl)c1,"inconclusive: 56.2 µM [inhibitor, single point]",
Cc1[nH]c2ccccc2c1SCC(=O)N1CCCCCC1,inactive,
CN1C(=O)C(c2ccccc2[N+](=O)[O-])C(=O)c2ccccc21 (centres undefined),"inconclusive: 89.1 µM [inhibitor, single point]",
Cc1nc2ncnn2c(N2CCN(C(c3ccccc3)c3ccccc3)CC2)c1C,"inconclusive: 35.5 µM [inhibitor, single point]",
COC(=O)CSc1cc(C)nc(NC(C)=O)n1,"inconclusive: 50.1 µM [inhibitor, partial curve, poor fit]",
COc1cc(C(c2c(NC(=O)c3ccco3)sc(C)c2C)N2CCOCC2)cc(OC)c1OC (centres undefined),active: 50.1 µM,
O=C(NCC(=O)N1CCN(C(=O)c2ccccc2)CC1)c1ccc(Cl)cc1Cl,,inconclusive: -95.8% [inhibitor] [at 12.7 µM]
O=C(O)c1ccc2nc(CO)[nH]c2c1,"inconclusive: 79.4 µM [inhibitor, single point]",
COc1ccc(Nc2cc(C(=O)NCc3ccccc3)c3ccccc3n2)cc1,inactive,
CCOc1ccc(C(=O)/C=C/c2ccc(OC)c(OC)c2)cc1,"inconclusive: 0.794 µM [inhibitor, partial curve, poor fit]",
COc1ccc(C)cc1S(=O)(=O)n1c([N+](=O)[O-])cnc1C,"inconclusive: 56.2 µM [inhibitor, partial curve, poor fit]",
Cc1ccsc1C1C2=C(CC(C)(C)CC2=O)Nc2ncnn21 (centres undefined),"inconclusive: 50.1 µM [inhibitor, partial curve, poor fit]",
O=C(N/N=C/c1ccoc1)c1ccc(Cl)cc1,active: 44.7 µM,
COc1ccc(-c2onc3ccc(Br)cc23)cc1,inactive,
CCCCNC(=O)N1CCN(c2ccnc3cc(Cl)ccc23)CC1,inactive,
COc1ccccc1C(=O)CSc1nccn1C,"inconclusive: 89.1 µM [inhibitor, single point]",
CC1CCCC(NC(=O)CCC(=O)c2ccc(F)cc2)C1C (centres undefined),inactive,
N#Cc1ccc(C(=O)Nc2cccc(NC(=O)c3ccco3)c2)c(F)c1,"inconclusive: 70.8 µM [inhibitor, partial curve]",
CC(C)OCCCn1c(=O)c2ccccc2n2c(-c3ccc(F)c(F)c3)nnc12,"inconclusive: 20 µM [inhibitor, partial curve, poor fit]",
Cc1ccc(-c2csc(Cc3nc(-c4ccc5c(c4)CCC(=O)N5)cs3)n2)cc1,"inconclusive: 79.4 µM [inhibitor, partial curve, poor fit]",
COc1ccc(C(C)=O)c(OC(=O)c2ccco2)c1,active: 44.7 µM,
COc1cc(OC)nc(S(C)(=O)=O)n1,"inconclusive: 25.1 µM [inhibitor, single point]",
CCN1CCN(Cc2ccc(OC)c(OCc3ccccc3)c2)CC1,"inconclusive: 31.6 µM [inhibitor, single point]",
Cc1ccc(OCCSc2nc3ccccc3n2CC(=O)N2CCCCC2)c(C)c1,active: 14.1 µM,
CCNc1nc(NCC)nc(OCCOC(=O)COc2ccc(Cl)cc2Cl)n1,"inconclusive: 28.2 µM [inhibitor, single point]",

Compound,Potency,"activity, negative = inhibition"
Cc1cc(C)c(C)c(S(=O)(=O)N2CCC(C(=O)NC3=NCCS3)CC2)c1C,,inactive: -7.16% [at 2.33 µM]
Cc1onc(-c2ccccc2)c1-c1nnc(CN2CCN(S(=O)(=O)c3ccccc3)CC2)o1,,inactive: 5.78% [at 12.7 µM]
Cc1cc2ncn(S(=O)(=O)c3ccc(S(=O)(=O)N4CCOCC4)cc3)c2cc1C,inactive,
CC(Oc1ccc([N+](=O)[O-])cc1)C(=O)NCC1CCCO1 (centres undefined),inactive,
O=C(COC(=O)C1CCN(c2ccc(C(F)(F)F)cn2)CC1)NCc1ccc(F)cc1,inactive,
O=C(c1cccc(F)c1)N1CCCN(C(=O)c2cccc(F)c2)CC1,inactive,
O=C(CCn1cnc2onc(-c3ccc(F)cc3)c2c1=O)N1CCN(c2ccccc2)CC1,"inconclusive: 15.8 µM [inhibitor, partial curve, poor fit]",
O=C(O)/C=C\C(=O)Nc1ccc(Oc2ccccc2)cc1,"inconclusive: 14.1 µM [inhibitor, partial curve]",
Oc1ccc2ccccc2c1C=Nc1ccccc1,active: 2.51 µM,
COC(=O)c1cc(C(=O)Nc2ccc(C)cn2)cc([N+](=O)[O-])c1,"inconclusive: 50.1 µM [inhibitor, partial curve, poor fit]",
COc1ccc(N2CCN(C(CNC(=O)C(=O)NCc3cccnc3)c3ccco3)CC2)cc1 (centres undefined),"inconclusive: 89.1 µM [inhibitor, single point]",
CCOC(=O)c1[nH]c2ccccc2c1NC(=S)Nc1cccc(C)c1C,active: 44.7 µM,
CC(=O)CSc1nnc(NC(=O)CCc2ccccc2)s1,"inconclusive: 7.94 µM [inhibitor, partial curve, poor fit]",
COc1ccc(Cn2nnc3c(=O)[nH]c(C(=O)NCCc4ccc(F)cc4)nc32)cc1OC,inactive,
Cc1cc(=O)oc(C)c1C(=O)NCC(C)NC(=O)c1c(C)cc(=O)oc1C (centres undefined),"inconclusive: 3.16 µM [inhibitor, single point]",
Cc1ccsc1-c1cc(C(=O)O)c2c(ccc3ccccc32)n1,inactive,
COc1ccc2c(c1)-c1nc(NC(=O)c3cccs3)sc1CC2,,inconclusive: -52.5% [inhibitor]
COc1ccc(Cn2c(CCC(=O)Nc3cccc(Cl)c3)nc3cccnc32)cc1,inactive,
c1ccc(-c2nc(Sc3ncnc4c3cnn4-c3ccccc3)n[nH]2)cc1,active: 31.6 µM,
CCCNC(=O)OCc1cccnc1Sc1ccc(C)cc1,inactive,
CCc1cccc(CC)c1NC(=O)C1CN(S(=O)(=O)c2ccccc2)CCN1S(=O)(=O)c1ccccc1 (centres undefined),"inconclusive: 79.4 µM [inhibitor, single point]",
Cc1ccc(NS(=O)(=O)c2ccc(C(=O)NCC3CCCO3)cc2)cc1 (centres undefined),inactive,
CC(C)Cc1nnc(NC(=O)Cc2ccccc2[N+](=O)[O-])s1,"inconclusive: 39.8 µM [inhibitor, single point]",
CCOC(=O)COc1cccc2c(=O)n(CC(=O)NCCc3ccc(OC)c(OC)c3)ccc12,"inconclusive: 89.1 µM [inhibitor, single point]",
O=C(Cn1c(=O)n(CC2CCCO2)c(=O)c2ccccc21)c1ccccc1 (centres undefined),,inactive: 12.2% [at 12.7 µM]

Compound,Potency,"activity, negative = inhibition"
O=C(N/N=C/C=C\c1ccco1)c1ccccn1,active: 35.5 µM,
O=C(OCCCN=C1NS(=O)(=O)c2ccccc21)C1CC(=O)N(c2ccc(Cl)cc2)C1 (centres undefined),"inconclusive: 39.8 µM [inhibitor, single point]",
N#Cc1ccc(C(=O)Nc2ccc3ccccc3c2)cc1,active: 44.7 µM,
Fc1ccccc1SCc1nnc(-c2ccccc2Br)o1,inactive,
CCN(CC)CCNC(=O)c1ccc2c(=O)n3nc(Nc4cccc(Cl)c4C)sc3nc2c1,"inconclusive: 10 µM [inhibitor, partial curve, poor fit]",
COc1ccc(C2=[N+]([O-])C(C)(C)C(c3ccccc3)=N2)cc1,"inconclusive: 44.7 µM [inhibitor, partial curve, poor fit]",
COc1ccc(C/C(C)=N/NC(=O)c2ccc(Cl)cc2)cc1,inactive,
CCCn1c(C(C)Nc2nc(-c3ccc(C)cc3)cs2)nc2ccccc21 (centres undefined),active: 89.1 µM,
C=CCNC(=S)NNC(=O)c1cccn(Cc2ccc(Cl)cc2)c1=O,"inconclusive: 20 µM [inhibitor, single point]",
N#Cc1nc(/C=C/c2ccc(F)cc2)oc1N1CCCCC1,"inconclusive: 14.1 µM [inhibitor, partial curve, poor fit]",
Cc1cc(C(=O)N/N=C/c2cc(Br)cc(Br)c2OC(=O)c2cccc(F)c2)n[nH]1,"inconclusive: 50.1 µM [inhibitor, partial curve]",
COc1ccccc1CNN,active: 25.1 µM,
COc1ccc(N2CCN(C(=S)NC(C)c3ccccc3)CC2)cc1 (centres undefined),"inconclusive: 8.91 µM [inhibitor, full curve]",
Cc1cc(C)n2nc(SCN3C(=O)c4ccccc4C3=O)nc2n1,"inconclusive: 6.31 µM [inhibitor, single point]",
CCOc1ccccc1NC(=O)CN1Cc2ccccc2C1=O,inactive,
COc1ccc(C(CNC(=O)c2cccc(NS(=O)(=O)c3ccc(C)c(F)c3)c2)N2CCCC2)cc1 (centres undefined),"inconclusive: 50.1 µM [inhibitor, partial curve]",
NC(=O)[C@@H]1CCCN1Cc1nc(Cc2cccc(C(F)(F)F)c2)no1,"inconclusive: 50.1 µM [inhibitor, partial curve, poor fit]",
CCCOC(=O)c1ccc(NC(=O)Cc2cccs2)cc1,inactive,
Clc1cccc(OCCN2CCCC2)c1,"inconclusive: 89.1 µM [inhibitor, partial curve, poor fit]",
CCOc1ccccc1CNC(=O)c1ccc2nc(CCc3ccccc3)oc2c1,inactive,
Cn1c2c(c(=O)n(C)c1=O)C(c1ccccc1F)C(C#N)=C(N)O2 (centres undefined),active: 15.8 µM,
Cc1ccc(Cn2cc3c(n2)-c2c(oc(C(=O)Nc4ccc(F)cc4F)c2C)CC3)cc1,inactive,
Cc1c(Cc2ccc3c(c2)OCO3)sc(NC(=O)C(C)(C)C)c1C#N,inactive,
Cc1cc(-c2ccccc2)nc2cc(C(=O)Nc3cc(C(F)(F)F)ccc3Cl)nn12,"inconclusive: 28.2 µM [inhibitor, partial curve, poor fit]",
